In PubChem BioAssay AID686971 (National Center for Advancing Translational Sciences (NCATS), 2013):
The campaign covered roughly 360,000 compounds. About 7,500 (2.1%) were called active. This list was built around the results that the source calls inconclusive (neither active nor inactive); the mix of calls is not that of the screen. Calls follow the shape of the dose curve; as a rule, active = well fitted cell-killing curve with a large enough effect; inconclusive = small, poorly fitted or top-dose-only effect, or effect the other way, or another doubt; inactive = no such curve, though single readings can be large or run the other way. Potencies of inconclusive entries are left out as doubtful fits.

experiment: qHTS for induction of synthetic lethality in tumor cells producing 2HG: qHTS for the HT-1080-IDH1KD cell line; conditions: HT-1080 IDH1 knockdown viability, ATP luminescence, 48 h; activity, negative = toxicity: at 46.1 µM (top of the series) unless noted;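 as to activity, negative = toxicity: 0% = DMSO wells and -100% = cell-free medium wells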
In short: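 Cytotoxicity counter-line: IDH1KD HT-1080, 48 h, CellTiter-Glo. Curves classed by r2, magnitude and activity.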
Potency is read from the fitted curve at half-maximal effect; tags tell the direction and shape of the fitted curve.

| Structure (SMILES) | Potency | activity, negative = toxicity |
| --- | --- | --- |
| CC(C)(C)CC(C)(C)NC(=S)Nc1ccc(S(=O)(=O)N2CCOCC2)cc1 | inconclusive [cytotoxic, single point] |  |
| O=C(N/N=C/c1cc(Br)c(O)c(Br)c1O)c1cccnc1 | active: 10.3 µM |  |
| C=CCn1c(O)c(N=NC(=S)Nc2ccccc2F)c2cc(S(=O)(=O)N3CCOCC3)ccc21 | inconclusive [cytotoxic, full curve, poor fit] |  |
| Cc1ccc([N+](=O)[O-])cc1NC1CC(O)C(CO)O1 (stereo not given) | inactive |  |
| CCOc1cc(/C=N/N=C(N)N)ccc1OCc1ccc(Cl)cc1 | inconclusive [cytotoxic, single point] |  |
| O=[N+]([O-])c1cc(/C=N/N2CCOCC2)cs1 | inconclusive [rising, single point] |  |
| O=C(NCCOc1ccccc1)c1ncn[nH]1 | inconclusive [cytotoxic, single point] |  |
| CC(C)(C)c1ccc(SCCc2ccccn2)cc1 | inactive |  |
| COc1ccc(NC(=O)Cn2c3ccccc3c3nc4n(c(=O)c32)CCS4)cc1 | inconclusive [cytotoxic, partial curve] |  |
| O=[N+]([O-])c1ccc(S(=O)(=O)NCCN2CCOCC2)cc1 | inactive |  |
| CC(=O)c1c(C)[nH]c(C(=O)OCC(=O)c2ccc(C)s2)c1C | inactive |  |
| C=CCNC(=O)c1onc(CSc2ccc(Cl)cc2)c1C(=O)NCC=C | inactive |  |
| CC(C)C(=O)Nc1cccc(NC(=O)CCN2C(=O)c3ccccc3S2(=O)=O)c1 | inconclusive [rising, single point] |  |
| Cc1ccc(S(=O)(=O)N(C)C)cc1NC(=O)COC(=O)CCC(=O)c1ccc(F)cc1 | inactive |  |
| COc1cc(OC)cc(C2=Cc3ccc(OC)cc3C(CC(C)=O)N2c2ccc(C#CCCO)cc2)c1 (stereo not given) | inconclusive [cytotoxic, single point] |  |
| Cc1ccc(C)c(OCc2nnc(NC(=O)c3ccc4c(c3)OCO4)s2)c1 | inconclusive [cytotoxic, single point] |  |
| COc1ccccc1-n1c(CNC(=O)COc2ccccc2)n[nH]c1=S |  | inactive: -0.566% [at 9.24 µM] |
| CCOc1cc(CNCCO)cc(Br)c1OCc1ccc(Cl)cc1Cl | active: 20.6 µM |  |
| CCOC(=O)/C(C#N)=C/N1CCOCC1 | inconclusive [rising, partial curve] |  |
| Cc1c(/C=N\NC(=O)c2cc3ccccc3o2)c2ccccc2n1C | active: 18.4 µM |  |
| CC(=O)Nc1ccc(S(=O)(=O)N2CCN(c3cc(C)nc4ccccc34)CC2)cc1 | inconclusive [cytotoxic, single point] |  |
| COc1ccc(S(=O)(=O)N2CCC(C(=O)N3CCc4ccccc4C3)CC2)cc1Cl | inconclusive [cytotoxic, single point] |  |
| COc1ccc2c(c1)C(=O)N1[C@H]3c4cc(C)ccc4OC[C@@H]3[C@H](c3ccccc3)[C@]1(C)C(=O)N2 | inconclusive [cytotoxic, full curve] |  |

| Structure (SMILES) | Potency | activity, negative = toxicity |
| --- | --- | --- |
| CC(=O)c1cccc(NC(=S)NCCC2=CCCCC2)c1 | inconclusive [cytotoxic, single point] |  |
| CC(C)N(C(=O)[C@H]1C[C@H](CC(=O)NCCC2=CCCCC2)C(=O)N2CCc3c([nH]c4ccc(Cl)cc34)[C@]12C)C(C)C | inactive |  |
| CCC(CO)Oc1cc(NC(=O)c2cccc(C)c2)c2ncn(C(C)C)c2c1 (stereo not given) | inactive |  |
| Cc1cc(C)cc(Nc2c3c(nc4ncnn24)CCC3)c1 | inconclusive [cytotoxic, single point] |  |
| Cc1ccc(C)c(NC(=S)N=Nc2c(O)n(C)c3ccc(S(=O)(=O)N4CCOCC4)cc23)c1 | inconclusive [cytotoxic, single point] |  |
| c1csc(-c2nnc(Cc3cccc4ccccc34)o2)c1 | inconclusive [cytotoxic, partial curve] |  |
| CC(CCc1ccccc1)NC(=O)CCNS(=O)(=O)c1ccccc1C(F)(F)F (stereo not given) | inactive |  |
| O=C(NCc1cccnc1)/C(=C\c1ccc(-c2ccc(Br)cc2)o1)S(=O)(=O)c1ccccc1 | active: 5.8 µM |  |
| CC(C)Cc1ccc(C(C)C(=O)Nc2cccnc2)cc1 (stereo not given) | inconclusive [cytotoxic, partial curve] |  |
| Nc1nc2ccccc2n1CCOc1ccc(F)cc1 | inconclusive [cytotoxic, single point] |  |
| O=C(CN1CCN(c2ccccn2)CC1)N1c2ccccc2Sc2ccc(C(F)(F)F)cc21 | inconclusive [cytotoxic, single point] |  |
| CSc1nc2ncc(-c3ccsc3)c(N)n2n1 | inactive |  |
| Cc1ccc(S(=O)(=O)N(C)C)cc1NC(=O)COC(=O)/C=C/c1ccc2ccccc2n1 | inconclusive [cytotoxic, single point] |  |
| O=[N+]([O-])c1cc(-c2nnc(Nc3ccccc3)c3ccccc23)ccc1N1CCOCC1 | inconclusive [cytotoxic, single point] |  |
| COc1ccccc1NC(=O)Nc1ccc(C(=O)N2CCCCC2)cc1 | inconclusive [cytotoxic, partial curve] |  |
| Cc1ccccc1-c1cc(C(=O)NCc2ccco2)n(CC2CC(c3cccnc3)=NO2)n1 (stereo not given) | inconclusive [cytotoxic, single point] |  |
| CCOc1ccccc1-n1nnnc1SCC(=O)N(C)C1CCS(=O)(=O)C1 (stereo not given) | inactive |  |
| N=c1sccn1CC(=O)Nc1ccccc1Sc1ccccc1 | inactive |  |
| CCOC(=O)CN1C(c2ccccc2O)Nc2ccc(Br)cc2C1c1ccccc1 (stereo not given) |  | inconclusive: -30% [cytotoxic] |
| CC[C@H](CO)Oc1cc(NCc2cccc(N)c2)c2ncn(C(C)C)c2c1 | inconclusive [cytotoxic, single point] |  |
| COc1cc(/C=N/NC(=O)c2ccc(CN(C)S(=O)(=O)c3ccc(C)cc3)cc2)ccc1O | inconclusive [cytotoxic, full curve] |  |
| O=C(CN1CCC(c2nc3ccccc3s2)CC1)N1CCCCC1 | inactive |  |
